# Reference: the supplement of paper PMC8728848
# Some of the results follow.
# B1: RS-IIL (Ralstonia solanacearum) (protein)
# chain: AQQGVFTLPANTSFGVTAFANAANTQTIQVLVDNVVKATFTGSGTSDKLLGSQVLNSGSGAIKIQVSVNGKPSDLVSNQTILANKLNFAMVGSEDGTDNDYNDGIAVLNWPLG
# Tests used:
# Experiment in all cases: glycan array binding signal (z-score within array); higher = stronger binding
# Conditions in all cases: glycan notation: IUPAC condensed, linker removed
# [1] = target: Fuc(a1-3)[Gal(b1-4)]GlcNAc
# How it was run: (§1)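 Glycan array binding is given as a within-array Z-score, which can be read as non-binding when negative. The arrays, 3228 of them, came from the Consortium for Functional Glycomics database and were retained only where the protein sequence was available. Z-scores were averaged across arrays of the same protein sequence at different concentrations or buffers and across linkers.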
# [2] = target: Fuc(a1-3)[Gal(b1-4)]GlcNAc(b1-4)Gal(b1-4)[Fuc(a1-3)]GlcNAc
# How it was run: as §1
# [3] = target: Fuc(a1-3)[Gal(b1-4)]GlcNAc(b1-4)Gal(b1-4)[Fuc(a1-3)]GlcNAc(b1-4)Gal(b1-4)[Fuc(a1-3)]GlcNAc
# How it was run: as §1
# [4] = target: Fuc(a1-3)[Gal3S(b1-4)]GlcNAc
# How it was run: as §1
# [5] = target: Fuc(a1-3)[GalNAc(b1-4)]GlcNAc
# How it was run: as §1
# Fuc(a1-4)GlcNAc = target: Fuc(a1-4)GlcNAc
# How it was run: as §1
# Fuc(b1-3)GlcNAc = target: Fuc(b1-3)GlcNAc
# How it was run: as §1
# Gal(a1-2)Gal = target: Gal(a1-2)Gal
# How it was run: as §1
# Gal(a1-3)Gal = target: Gal(a1-3)Gal
# How it was run: as §1
# Gal(a1-3)Gal(b1-3)GlcNAc = target: Gal(a1-3)Gal(b1-3)GlcNAc
# How it was run: as §1
# Gal(a1-3)Gal(b1-4)Glc = target: Gal(a1-3)Gal(b1-4)Glc
# How it was run: as §1
# Gal(a1-3)Gal(b1-4)GlcNAc = target: Gal(a1-3)Gal(b1-4)GlcNAc
# How it was run: as §1
# [6] = target: Gal(a1-3)Gal(b1-4)[Fuc(a1-3)]GlcNAc
# How it was run: as §1
# Gal(a1-3)GalNAc = target: Gal(a1-3)GalNAc
# How it was run: as §1
# [7] = target: Gal(a1-3)[Gal(a1-4)]Gal(b1-4)GlcNAc
# How it was run: as §1
# Gal(a1-4)Gal(b1-4)Glc = target: Gal(a1-4)Gal(b1-4)Glc
# How it was run: as §1
# Gal(a1-4)Gal(b1-4)GlcNAc = target: Gal(a1-4)Gal(b1-4)GlcNAc
# How it was run: as §1
# Gal(a1-4)GlcNAc = target: Gal(a1-4)GlcNAc
# How it was run: as §1
# Gal(a1-6)Glc = target: Gal(a1-6)Glc
# How it was run: as §1
# Gal(b1-2)Gal = target: Gal(b1-2)Gal
# How it was run: as §1
# Gal(b1-3)Gal = target: Gal(b1-3)Gal
# How it was run: as §1
# Gal(b1-3)GalNAc = target: Gal(b1-3)GalNAc
# How it was run: as §1
# [8] = target: Gal(b1-3)GalNAc(b1-3)Gal(a1-4)Gal(b1-4)Glc
# How it was run: as §1
# [9] = target: Gal(b1-3)GalNAc(b1-4)Gal(b1-4)Glc
# How it was run: as §1
# [10] = target: Gal(b1-3)GalNAc(b1-4)[Neu5Ac(a2-3)]Gal(b1-4)Glc
# How it was run: as §1
# Gal(b1-3)GlcNAc = target: Gal(b1-3)GlcNAc
# How it was run: as §1
# [11] = target: Gal(b1-3)GlcNAc(b1-3)Gal(b1-4)Glc
# How it was run: as §1
# [12] = target: Gal(b1-3)GlcNAc(b1-3)Gal(b1-4)GlcNAc
# How it was run: as §1
# [13] = target: Gal(b1-3)[Fuc(a1-4)]GlcNAc
# How it was run: as §1
# [14] = target: Gal(b1-3)[Fuc(a1-4)]GlcNAc(b1-3)Gal(b1-4)GlcNAc
# How it was run: as §1
binder,measurement,setting,value
B1,glycan array binding signal (z-score),[1],-0.198
same,glycan array binding signal (z-score),[2],-0.05
same,glycan array binding signal (z-score),[3],0.147
same,glycan array binding signal (z-score),[4],-0.256
same,glycan array binding signal (z-score),[5],-0.27
same,glycan array binding signal (z-score),Fuc(a1-4)GlcNAc,0.191
same,glycan array binding signal (z-score),Fuc(b1-3)GlcNAc,-0.275
same,glycan array binding signal (z-score),Gal(a1-2)Gal,-0.385
same,glycan array binding signal (z-score),Gal(a1-3)Gal,-0.378
same,glycan array binding signal (z-score),Gal(a1-3)Gal(b1-3)GlcNAc,-0.387
same,glycan array binding signal (z-score),Gal(a1-3)Gal(b1-4)Glc,-0.386
same,glycan array binding signal (z-score),Gal(a1-3)Gal(b1-4)GlcNAc,-0.388
same,glycan array binding signal (z-score),[6],-0.274
same,glycan array binding signal (z-score),Gal(a1-3)GalNAc,-0.386
same,glycan array binding signal (z-score),[7],-0.379
same,glycan array binding signal (z-score),Gal(a1-4)Gal(b1-4)Glc,-0.387
same,glycan array binding signal (z-score),Gal(a1-4)Gal(b1-4)GlcNAc,-0.384
same,glycan array binding signal (z-score),Gal(a1-4)GlcNAc,-0.387
same,glycan array binding signal (z-score),Gal(a1-6)Glc,-0.387
same,glycan array binding signal (z-score),Gal(b1-2)Gal,-0.387
same,glycan array binding signal (z-score),Gal(b1-3)Gal,-0.386
same,glycan array binding signal (z-score),Gal(b1-3)GalNAc,-0.388
same,glycan array binding signal (z-score),[8],-0.384
same,glycan array binding signal (z-score),[9],-0.369
same,glycan array binding signal (z-score),[10],-0.372
same,glycan array binding signal (z-score),Gal(b1-3)GlcNAc,-0.389
same,glycan array binding signal (z-score),[11],-0.332
same,glycan array binding signal (z-score),[12],-0.381
same,glycan array binding signal (z-score),[13],0.684
same,glycan array binding signal (z-score),[14],-0.042
